The values that follow come from the GPR68 mutational scans of Howard et al. (2025).

Sequences and labels used below:
B1: GPR68, Q15743 (parent)
chain: MGNITADNSSMSCTIDHTIHQTLAPVVYVTVLVVGFPANCLSLYFGYLQIKARNELGVYLCNLTVADLFYICSLPFWLQYVLQHDNWSHGDLSCQVCGILLYENIYISVGFLCCISVDRYLAVAHPFRFHQFRTLKAAVGVSVVIWAKELLTSIYFLMHEEVIEDENQHRVCFEHYPIQAWQRAINYYRFLVGFLFPICLLLASYQGILRAVRRSHGTQKSRKDQIQRLVLSTVVIFLACFLPYHVLLLVRSVWEASCDFAKGVFNAYHFSLLLTSFNCVADPVLYCFVSETTHRDLARLRGACLAFLTCSRTGRAREAYPLGAPEASGKSGAQGEEPELLTKLHPAFQTPNSPGSGGFPTGRLA

Series [1] covers variants of B1. The experiment in a line: cAMP reporter score (Enrich2 score, wild type = 0); higher = more signal; HEK293T, FACS bins.
In series [2] the parent is B1. Put plainly: surface expression score (Enrich2 score, wild type = 0); higher = more signal; HEK293T, FACS bins.

Scores with a large standard error are left out. Two further conditions of the source, in which the scores hardly spread, are not listed. Read del as a deletion of the residues named and ins as an insertion between two positions. For some of these results: The data file names ogerin without a concentration.

As to K136S, the cAMP reporter score was -0.351 in series [1] (pH 5.5); -0.306 in series [1] (pH 6); -0.375 in series [1] (pH 6, modulator: ogerin); -0.284 in series [1] (pH 6.5, modulator: ogerin). Moreover, in series [2], the surface expression score is -1.64.
On the same counts, the results for K136E are -0.709, 0.118, 0.358, 0.248 and -0.982.
Turning to K136T, the cAMP reporter score is 2.5 in series [1] (pH 5.5) and 0.627 in series [1] (pH 6, modulator: ogerin).
Consider K136R, for which the cAMP reporter score was -0.382 in series [1] (pH 5.5); -0.333 in series [1] (pH 6, modulator: ogerin); 0.005 in series [1] (pH 6.5, modulator: ogerin). Also, the surface expression score in series [2] is -0.694.
For the variant K136W, the cAMP reporter score was -1.53 in series [1] (pH 5.5); -0.932 in series [1] (pH 6); -1.26 in series [1] (pH 6, modulator: ogerin); -1.29 in series [1] (pH 6.5, modulator: ogerin). Moreover, the surface expression score in series [2] is -2.04.
On the same counts, the results for L121_A122insGS are -1.94, -1.62, -0.938, -1.44 and -1.63.
On the same counts, the results for H130N are -0.436, -0.72, -0.745, -0.948 and -0.101.
On the same counts, the results for H130W are -0.793, -0.83, -1.29, -0.949 and -1.84.
Turning to H130E, the cAMP reporter score is -0.756 in series [1] (pH 5.5); -1.18 in series [1] (pH 6); -0.884 in series [1] (pH 6, modulator: ogerin); -0.834 in series [1] (pH 6.5, modulator: ogerin). The surface expression score in series [2] was 0.013.
On the same counts, the results for H130A are -0.336, -1, 0.517, -0.903 and -0.013.
On the same counts, the results for H130P are -0.875, -1.89, -0.347, -0.087 and 1.19.
As to H130L, the cAMP reporter score in series [1] (pH 5.5) worked out at 0.124; in series [1] (pH 6) it was 0.305; in series [1] (pH 6, modulator: ogerin) it was 0.767; in series [1] (pH 6.5, modulator: ogerin) it was 0.971. For the same variant, the surface expression score in series [2] is -0.155.
With H130T, the cAMP reporter score in series [1] (pH 5.5) is -0.494; in series [1] (pH 6), -0.598.
Consider H130R, for which the cAMP reporter score in series [1] (pH 5.5) came out at 0.496; in series [1] (pH 6), 0.064; in series [1] (pH 6, modulator: ogerin) it was 0.815; in series [1] (pH 6.5, modulator: ogerin), 0.406. Also, the surface expression score in series [2] amounted to 1.57.
In the case of H130D, the cAMP reporter score in series [1] (pH 5.5) is -0.72; in series [1] (pH 6) it was -0.544; in series [1] (pH 6, modulator: ogerin) it was -1.06; in series [1] (pH 6.5, modulator: ogerin), -0.889. Besides, the surface expression score in series [2] is -1.54.
On the same counts, the results for H130K are -0.244, -0.237, -0.113, -0.455 and 0.244.
On the same counts, the results for H130G are 1.41, 0.063, 1.34, 0.23 and 0.423.
On the same counts, the results for H130Q are 0.131, 1.23, 0.094, 0.976 and 0.826.
H130V: the cAMP reporter score is 0.339 in series [1] (pH 5.5); -0.47 in series [1] (pH 6); 0.711 in series [1] (pH 6, modulator: ogerin); 0.014 in series [1] (pH 6.5, modulator: ogerin). The surface expression score in series [2] stood at 0.17.
On the same counts, the results for H130M are 1.02, 0.076, 1.16, -0.522 and 0.68.
On the same counts, the results for H130Y are -0.543, -0.205, -0.527, -0.621 and -0.7.
As for H130C, the cAMP reporter score is 0.179 in series [1] (pH 5.5); -0.721 in series [1] (pH 6, modulator: ogerin); -0.404 in series [1] (pH 6.5, modulator: ogerin). Besides, in series [2], the surface expression score is -0.812.
For T134_L135insG, the cAMP reporter score in series [1] (pH 5.5) is -1.09; in series [1] (pH 6), -0.522; in series [1] (pH 6, modulator: ogerin) it was -0.565; in series [1] (pH 6.5, modulator: ogerin), -0.674. The surface expression score in series [2] was -3.17.
On the same counts, the results for L121_A122del are -1.22, -0.408, -1.35, -1.05 and -1.92.
On the same counts, the results for H130del are -1.59, -1.71, -2.13, -1.8 and -1.88.
On the same counts, the results for V123_A124insGSG are -1.35, -1.7, -1.53, -2.1 and -2.77.
Turning to A122_V123insGS, the cAMP reporter score is -2.17 in series [1] (pH 5.5); -1.9 in series [1] (pH 6); -1.66 in series [1] (pH 6, modulator: ogerin); -0.699 in series [1] (pH 6.5, modulator: ogerin). The surface expression score in series [2] was -2.17.
Consider V117_D118insG, for which the cAMP reporter score in series [1] (pH 5.5) is -2.53; in series [1] (pH 6), -0.968; in series [1] (pH 6, modulator: ogerin), -3.49; in series [1] (pH 6.5, modulator: ogerin) it was -1.49.
In the case of V117_D118insGS, the cAMP reporter score in series [1] (pH 5.5) was -1.12; in series [1] (pH 6) it was -0.065; in series [1] (pH 6, modulator: ogerin) it was -3.23; in series [1] (pH 6.5, modulator: ogerin) it was -0.438. Moreover, in series [2], the surface expression score is -1.21.
Turning to P126A, the cAMP reporter score in series [1] (pH 5.5) is -2.12; in series [1] (pH 6, modulator: ogerin), -1.7. Moreover, the surface expression score in series [2] was -1.97.
In the case of P126V, the cAMP reporter score in series [1] (pH 5.5) is -0.416; in series [1] (pH 6), -0.595; in series [1] (pH 6, modulator: ogerin), -1.85; in series [1] (pH 6.5, modulator: ogerin), -0.775.
Regarding P126Y, the cAMP reporter score in series [1] (pH 5.5) is -1.53; in series [1] (pH 6), -1.23; in series [1] (pH 6, modulator: ogerin), -2; in series [1] (pH 6.5, modulator: ogerin), -1.29. Besides, the surface expression score in series [2] is -2.16.
